Measurements: the supplement of paper PMC3334620
Over roughly 33,000 sequences, “E-score (-0.5 to 0.5)” has its median near -0.017; the highest 2% begin near 0.3. The list shows a part of the results.

biological target: T1, Sut1 (UniProt P53032); test: PBM E-score (8-mer binding enrichment) (E-score (-0.5 to 0.5)); higher = stronger / more preferred TF binding; most listed sequences are background and not binding sites; conditions: protein concentration: 200 nM; construct: GST-full length
T1 sequence: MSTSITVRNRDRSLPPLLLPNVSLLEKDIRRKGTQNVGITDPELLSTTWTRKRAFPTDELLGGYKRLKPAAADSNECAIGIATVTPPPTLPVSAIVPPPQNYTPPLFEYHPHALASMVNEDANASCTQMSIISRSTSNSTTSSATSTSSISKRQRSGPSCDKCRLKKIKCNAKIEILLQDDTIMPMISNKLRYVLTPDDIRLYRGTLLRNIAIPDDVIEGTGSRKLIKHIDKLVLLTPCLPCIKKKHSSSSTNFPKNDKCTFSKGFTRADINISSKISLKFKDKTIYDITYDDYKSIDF
How it was run: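 Universal all-10-mer Agilent arrays, fresh or stripped once, were converted to double-stranded form by primer extension. GST-tagged yeast transcription factors from PURExpress in vitro transcription/translation, full-length or DNA-binding domain only, were applied at about 100-200 nM and detected with fluorescent anti-GST. After masliner normalisation, the Universal PBM Analysis Suite scored each ungapped eight-base word together with its reverse complement by E-score.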

Row | Sequence | PBM E-score
1 | CAATACAG | 0.0637
2 | CCGACAGG | -0.0152
3 | CTACAATC | 0.157
4 | CGGATATA | 0.288
5 | CTTTGGAA | 0.141
6 | CCTTAATC | -0.0331
7 | CGCTGCTC | -0.258
8 | AAATTCGC | 0.193
9 | ACTCCCAG | -0.142
10 | ACAGGAGA | -0.137
11 | CATCCGAC | 0.122
12 | ACAGGATG | 0.00239
13 | TGGGAGAA | -0.07
14 | ACATCCGC | 0.0472
15 | ATCAGCCG | 0.0393
16 | GTGTTGCA | 0.043
17 | AGCCCTAC | -0.227
18 | CTATTAAC | 0.154
19 | CAATAGCG | -0.115
20 | ATAAGGAA | -0.055
21 | GGGATTAA | 0.0807
22 | AGAAATCT | 0.143
23 | GACATGCC | 0.00578
24 | GTCATCTA | -0.0917
25 | ATTTTCGG | 0.345

Row | Sequence | PBM E-score
26 | TTATACAA | 0.326
27 | ATTGACTG | -0.1
28 | CATCTCCA | -0.036
29 | CCGGGACG | -0.00588
30 | ACACATTG | 0.114
31 | CGCTGTAA | 0.00093
32 | ACGAACAT | 0.2
33 | CTTCTGGA | -0.0307
34 | AGAATTCA | 0.115
35 | ACTGCAGT | -0.107
36 | TGCTTCCA | -0.138
37 | AGGGCCAG | -0.213
38 | ACTCCCAT | -0.0456
39 | GGCCTCCC | -0.322
40 | GGAACTTA | -0.0324
41 | AGACATGA | -0.141
42 | GCTTCTGA | -0.0112
43 | GCTACGCA | -0.141
44 | ATTCACAC | 0.0223
45 | AAGAGCGT | -0.00268
46 | GTGAGCAA | -0.183
47 | GCGATGCC | -0.224
48 | CCCCTCAC | -0.228
49 | GAGTCAGC | -0.189
50 | CCTAGGAC | -0.224

Row | Sequence | PBM E-score
51 | ACAAATCG | 0.0158
52 | AAGATAGG | 0.013
53 | AAGGCCCG | -0.201
54 | ATTGGGGC | -0.226
55 | AGCATATG | -0.0707
56 | CTTATCGA | 0.111
57 | TAAACCCA | 0.0439
58 | CATGAGGC | -0.229
59 | GTCTATAA | 0.161
60 | ACACTATA | 0.217
61 | AGCTCCAT | -0.0409
62 | GGTATATA | 0.263
63 | AGATAGAA | 0.2
64 | ATCAACAG | 0.0277
65 | ACAGGGAC | -0.102
66 | CTCCGTGC | 0.321
67 | CAAATTTA | 0.205
68 | CATGCGAC | -0.151
69 | GAGCACAA | 0.0285
70 | ACTCGTCC | -0.0531
71 | CCGCCGCC | -0.0283
72 | AATTGGAG | -0.104
73 | GCAAGCAA | -0.0317
74 | GATCGTGC | -0.0302
75 | CTTCGAAG | 0.119

Row | Sequence | PBM E-score
76 | CACCAGAC | -0.112
77 | GAAAAGCA | 0.0823
78 | GCACTGGC | -0.285
79 | AACGGTAG | -0.151
80 | ATGCTTAC | -0.279
81 | CCACCGCA | -0.0617
82 | TACATTCA | 0.124
83 | CCCGCGCA | -0.168
84 | TGACGACA | 0.0169
85 | GGTTTTAC | -0.289
86 | CCTTCCGA | 0.134
87 | TACAGACA | 0.216
88 | AGTTTCAT | 0.199
89 | CCCCTACA | -0.308
90 | ACGCAAAA | 0.0234
91 | GCAGCATA | -0.22
92 | CGCCTCGA | 0.00442
93 | ATCCTCAG | -0.00968
94 | AACAAAGC | 0.192
95 | AAGGAAGT | 0.213
96 | ATCTTGTG | -0.0216
97 | CCCCGGCC | -0.173
98 | CATAACCG | 0.0105
99 | ACGCGAGG | -0.184
100 | AAGCGGTA | 0.0984

Row | Sequence | PBM E-score
101 | CCTCTATC | -0.17
102 | AGTGTCAT | 0.0512
103 | AAGATAAA | 0.199
104 | CTCATCAG | 0.076
105 | GCTTCACC | -0.0264
106 | TCTCCCAA | -0.0834
107 | ATGTTTAG | 0.0163
108 | AGGATTTA | 0.165
109 | AGGACCGA | 0.0169
110 | CAGCGTGA | -0.169
111 | GACGAAAC | 0.054
112 | ACATTCCC | 0.046
113 | ATACCCAC | -0.14
114 | ATTCGACG | -0.035
115 | AGTGTGGA | 0.0491
116 | TATTCAAA | 0.212
117 | AGGTTTGC | -0.0806
118 | ACTATGGC | -0.0581
119 | GGTGCGCA | -0.116
120 | GCGCGCGA | -0.0696
121 | ACAGATGT | -0.0948
122 | AGTCGACT | 0.246
123 | ACTTGGAG | -0.075
124 | ACTGAACC | 0.0393
125 | CTGATGTC | 0.0719

Row | Sequence | PBM E-score
126 | GGGCATCA | -0.237
127 | AACGGCGA | 0.0997
128 | GACTGATA | 0.0856
129 | CGGTACAC | -0.215
130 | ACTAACGC | -0.085
131 | AACAAGAC | 0.0516
132 | AGCTCCGC | 0.331
133 | AGGGGGGA | -0.302
134 | AATGGTGC | 0.0132
135 | ATTCTTCA | 0.195
136 | AATATCTG | 0.00496
137 | TAGTTCCA | 0.143
138 | CACTGGGA | -0.173
139 | CCAATGCC | -0.15
140 | ACGTATCT | -0.0263
141 | GCACTACA | -0.216
142 | ATCGATTA | 0.0962
143 | AAGGGCCT | -0.122
144 | ATTTAACG | 0.298
145 | AATGTTGG | 0.0168
146 | GAAACCGC | 0.0576
147 | CGTAGCCC | -0.274
148 | AATGGACG | 0.196
149 | GAGCGTCC | -0.165
150 | AGAGTCGC | -0.0597

Row | Sequence | PBM E-score
151 | ATGACACC | -0.0718
152 | ACTCCTAG | -0.0737
153 | GGGGCTGA | -0.293
154 | TCGGAACA | 0.303
155 | AGCATTCG | 0.0505
156 | GGATCTTA | -0.00032
157 | ATCATAAC | 0.204
158 | CCAGTAGA | -0.112
159 | CTAGAAGC | -0.0707
160 | AGGATGCC | -0.205
161 | ACAGATTA | -0.0563
162 | AGTAGAAC | -0.0507
163 | ACCTTAGA | -0.0705
164 | AGAAGCTG | -0.155
165 | CAGGGCCG | -0.169
166 | AGTATAAC | 0.185
167 | CGGAGTCA | 0.474
168 | CCCGGCTA | -0.124
169 | GGTTAACA | 0.0261
170 | CAACCCTC | -0.257
171 | ATTGCTGC | -0.022
172 | AATTAGTG | 0.18
